Results on 43 molecules are retold here after ChEMBL document CHEMBL4888484, “Replenishing the malaria drug discovery pipeline: Screening and hit evaluation of the MMV Hit Generation Library 1 (HGL1) against asexual blood stage Plasmodium falciparum ,using a nano luciferase reporter read-out” (2022).

Structures are written as SMILES. The whole screen tested about 150,000 compounds, of which about 540 (0.36%) showed an effect of 50% or more. This is one part of the list.

This experiment deals with Plasmodium falciparum. In words: Primary screen in NF54 nanoGlo assay, in single point, at 2uM, 72h; a lower Z score goes with more inhibition. As to conditions: timepoint 72 hour. The format is functional, Erythrocyte.
For `Cc1ccc(-c2nc3cc(C)ccn3c2NC(=O)C2CCCCC2)cc1`, the “% Inhibition” value is reported as 1% and the Z score is recorded as -0.2.

Take `CC(C)CC(=O)Nc1ccc(N2CCN(C(=O)c3cccc(F)c3)CC2)c(C(=O)NCc2ccc(F)cc2)c1`: the “% Inhibition” value is on record as -17% and the Z score was found to be 1.48.

As to `CC1CN(CCCCC2CCOCC2)CCC1O` (stereo unspecified), the “% Inhibition” value is -11% and the Z score amounted to 1.13.

With `CCCn1nc(C)c(Cn2cc(-c3nccn3C)nn2)c1C`, the “% Inhibition” value is on record as -12% and the Z score is 2.29.

For `O=c1ccn(-c2ccccc2)nc1-c1nc(-c2ccccn2)no1`, the “% Inhibition” value worked out at 8% and the Z score is listed as -1.23.

For the molecule `CCCn1nc(C)c(CN2C[C@H](C)OC3(CCC3)C2)c1C`, the “% Inhibition” value was -8% and the Z score was found to be 1.57.

With `C[C@H]1CN(C)CCN1C(=O)c1ccc(Cn2cncn2)cc1`, the “% Inhibition” value was -4% and the Z score is listed as 0.49.

Take `Cc1c(S(=O)(=O)Nc2ccccn2)cc(-c2nc(-c3ccc(Cl)cc3)cs2)n1C`: the “% Inhibition” value is given as 4% and the Z score is recorded as -0.44.

Regarding `COCCn1cncc1CNC(=O)[C@@H]1CCc2ccccc21`, the “% Inhibition” value was -11% and the Z score came to 1.85.

On to `O=C(NCc1ccsc1)c1cccs1`, for which the “% Inhibition” value stood at 0% and the Z score is on record as -0.06.

Turning to `CCc1cnc(C)nc1N1CCC2(CCC(=O)N(CCOC)C2)CC1`, the “% Inhibition” value came to 6% and the Z score is listed as -0.87.

Regarding `O=C(c1ccccc1C1CCC1)N1CCN2C(=O)NC[C@H]2C1`, the “% Inhibition” value is 0% and the Z score was -0.01.

Turning to `Cc1nc2sccn2c1-c1noc([C@H]2OCC[C@H]2C(C)C)n1`, the “% Inhibition” value was -5% and the Z score came to 0.61.

For `O=S(=O)(CC12CCC(CC1)C2)N1CCCC[C@H]1c1nnc(C2CCC2)o1`, the “% Inhibition” value is -19% and the Z score worked out at 2.78.

As for `Cc1cc2ccccc2n1CC(=O)NC1CCN(Cc2ccccc2)CC1`, the “% Inhibition” value was -15% and the Z score is 2.18.

For the molecule `Cc1cnn(CC(=O)Nc2ccc3oc(-c4cc(F)ccc4Br)nc3c2)c1`, the “% Inhibition” value is reported as -17% and the Z score is on record as 2.23.

Turning to `CC(C)[C@@H]1CN(C)CCN1C(=O)C1=CCCC1`, the “% Inhibition” value is recorded as 2% and the Z score is -0.16.

`CC1CN(Cc2nnc(-c3ccco3)o2)C(C)CO1` (stereo unspecified): the “% Inhibition” value came to 2% and the Z score is recorded as -0.33.

For `CC(N[C@@H](C)CO)c1cn(C2CN(C(=O)OC(C)(C)C)C2)nn1` (stereo partly specified), the “% Inhibition” value is reported as -2% and the Z score amounted to 0.25.

Consider `COc1ccc(CNC(=O)COc2ncnc3oc(C)c(C)c23)c(OC)c1`, for which the “% Inhibition” value is 0% and the Z score worked out at 0.01.

In the case of `CCn1cc(S(=O)(=O)N2CCc3n[nH]c(=O)n3CC2)cn1`, the “% Inhibition” value worked out at 0% and the Z score is reported as -0.05.

As for `C[C@@H](c1ccc(-c2ccc(-n3ccnc3)nn2)cc1)N1CCCCC1`, the “% Inhibition” value is given as -2% and the Z score was found to be 0.36.

Turning to `CC(C)c1ccc2occ(C(=O)N3C[C@@H]4CCC[C@]4(C(N)=O)C3)c2c1`, the “% Inhibition” value is reported as 2% and the Z score is given as -0.33.

Regarding `O=C(C1CCCC1)N1CCN(c2ccccn2)CC1`, the “% Inhibition” value is reported as -3% and the Z score stood at 0.54.

As to `Cc1cccc(NS(=O)(=O)c2cc(C(=O)NC3CC4CCC3C4)ccc2Cl)c1C` (stereo unspecified), the “% Inhibition” value was -14% and the Z score turned out to be 1.74.

With `CCC1CCC(N(C)C(=O)c2ccc3ccccc3n2)CC1` (stereo unspecified), the “% Inhibition” value is 0% and the Z score is on record as 0.01.

Consider `COc1ccc2cc1OCC(=O)N[C@@H](C)C(=O)N(C)CCCCN(C/C=C/c1ccc(F)cc1)CCCNC(=O)CC2`, for which the “% Inhibition” value is -16% and the Z score came to 1.98.

Regarding `CC(C)(C)Oc1cc(C(=O)N(CC2CC2)c2cccnc2)ccn1`, the “% Inhibition” value is -9% and the Z score stood at 0.77.

Turning to `CC(C)CNC(=O)c1coc(CN(Cc2ccc3c(c2)OCO3)Cc2ccccc2C(F)(F)F)n1`, the “% Inhibition” value is given as -9% and the Z score worked out at 0.87.

Consider `CCc1nn(C)cc1NC(=O)c1ccc(C(C)C)nc1`, for which the “% Inhibition” value is 6% and the Z score is given as -0.81.

On to `CC(C)Oc1ccccc1CN[C@H]1CCN(C2CC2)C1`, for which the “% Inhibition” value is 9% and the Z score is given as -1.06.

Take `CC1OC(C)C(c2nc(-c3ccc(C(F)F)nc3)no2)C1C` (stereo unspecified): the “% Inhibition” value is recorded as -13% and the Z score is given as 2.04.

As for `CC1CCCC(C)N1C(=O)CNc1ccccc1C(=O)NC1CC1` (stereo unspecified), the “% Inhibition” value stood at 2% and the Z score was -0.26.

Regarding `COc1ccc(C(C)NC2CCC(=O)N(C)C2)cc1Cn1cccn1` (stereo unspecified), the “% Inhibition” value is -13% and the Z score was 1.69.

Regarding `COc1ccc(Cl)cc1-c1noc(C(=O)NCCNC(=O)COc2cccc(C(F)(F)F)c2)n1`, the “% Inhibition” value was -15% and the Z score is reported as 1.55.

Take `N#Cc1cccnc1N1CCOC2(CCCC2)C1`: the “% Inhibition” value is given as -4% and the Z score is reported as 0.64.

With `Cc1nccn1[C@@H](C)CC(=O)NCC1=CCCCC1`, the “% Inhibition” value is -7% and the Z score came to 0.79.

Take `CNC(=O)c1ccc(N(C)CC2(O)CCCC2)nn1`: the “% Inhibition” value is -5% and the Z score is given as 0.69.

`Cc1cc(CN(C)C(=O)Nc2nc(C)ns2)ccn1`: the “% Inhibition” value is reported as -8% and the Z score stood at 1.28.

On to `Cc1csc(NC(=O)C(=O)c2ccc(O)cc2)n1`, for which the “% Inhibition” value is on record as -6% and the Z score came to 0.76.

Regarding `Cc1cc(NC(=O)COc2ccccc2)on1`, the “% Inhibition” value was 3% and the Z score is -0.35.

For the molecule `Cc1csc(NC(=O)NCCc2nnc(N)o2)n1`, the “% Inhibition” value is listed as 2% and the Z score is given as -0.46.

Take `OCC[C@H]1CN(C/C=C/c2ccccc2)CCN1CC1CCCCC1`: the “% Inhibition” value is recorded as -8% and the Z score is recorded as 1.26.

A word on the % Inhibition: it is the relative decrease from the control value, in per cent.
